Paper PMC13083723 (Patterns, 2026)
In all, about 5,400 compounds went through this assay and about 190 (3.5%) showed an effect of 50% or more. The list shows a part of the results.

These molecules were tested on Vero-E6 (assay: primary screen, phospholipidosis by LipidTOX staining; higher = more effect of the substance). Settings: 10 µM.
Method in brief: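 Single-concentration screen at 10 μM, with DMSO 0.1 v/v % and amiodarone 10 μM as controls. Read-out is LipidTOX Red phospholipid staining, which tolerates aldehyde fixation, in Vero-E6 cells.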
With `O=[N+]([O-])C(Br)(CO)CO` the result_ITMP was 2.28%. With `CN1C(=O)N[C@H](Cc2c[nH]c3c(Cl)cccc23)C1=O` the result_ITMP was -1.67%. For `O=c1c(-c2ccc(O)cc2)coc2c(O[C@@H]3O[C@H](CO)[C@@H](O)[C@H](O)[C@H]3O)c(O)ccc12`, the result_ITMP was -5.15%. `COc1ccc(Cl)cc1C(=O)NCCc1ccc(S(=O)(=O)NC(=O)NC2CCCCC2)cc1` gave a result_ITMP of -16.6%. Molecule `Nc1nc(=O)n([C@@H]2CS[C@H](CO)O2)cc1F` has a result_ITMP of -4.15%. With `O[C@@H]1CCCC[C@H]1N1CCC(c2ccccc2)CC1` (racemic) the result_ITMP was -4.38%. `CN(Cc1cccc(-c2ccccc2)c1)C(=O)Oc1ccc(-c2ccc(C(N)=O)cc2)cc1` gave a result_ITMP of -5.7%. With `COc1cc(SC)ccc1C(=O)N1CCC(Cc2ccccc2)CC1` the result_ITMP was 2.55%. Work on `CN(C)CCc1ccc(O)cc1` yielded a result_ITMP of 6.45%. `CC#C[C@]1(O)CC[C@H]2[C@@H]3CCC4=CC(=O)CCC4=C3[C@@H](c3ccc(N(C)C)cc3)C[C@@]21C` showed a result_ITMP of -1.9%. For `C[C@H]1NCc2cc(-c3ccc4c(=O)c(C(=O)O)cn(C5CC5)c4c3OC(F)F)ccc21`, the result_ITMP was -1.28%. `CCc1cccc(CC)c1NC(=O)N1Cc2[nH]nc(NC(=O)c3ccc(N4CCN(C)CC4)cc3)c2C1` gave a result_ITMP of 3.48%. In the case of `CO[C@H]1CC[C@H](N(c2cc(C3=CCCCC3)sc2C(=O)[O-])C(=O)[C@H]2CC[C@H](C)CC2)CC1`, the result_ITMP is reported as -0.87%. `COC(=O)N[C@@H](C)CNc1nccc(-c2cn(C(C)C)nc2-c2cc(Cl)cc(NS(C)(=O)=O)c2F)n1` gave a result_ITMP of 6.64%. Molecule `CC[C@@H]1C(=O)N(C)c2cnc(Nc3ccc(C(=O)N[C@H]4CC[C@H](N5CCN(CC6CC6)CC5)CC4)cc3OC)nc2N1C(C)C` has a result_ITMP of 81.5%. With `COC(=O)C1=CO[C@@H](O)[C@@H]2C(CO)=CC[C@H]12` the result_ITMP was 2.68%. With `COc1cc2c(NC3CCN(C(C)C)CC3)nc(N3CCC(F)(F)CC3)nc2cc1OCCCN1CCCC1` the result_ITMP was 8.94%. Work on `O=C([O-])P(=O)([O-])[O-]` yielded a result_ITMP of -2.03%. For `CC(=O)OCC1=C(C(=O)[O-])N2C(=O)[C@@H](NC(=O)CCCC(N)C(=O)[O-])C2SC1` (stereo partly drawn), the result_ITMP was 1.34%. `CC(C)(C)c1ccc(S(=O)(=O)Nc2ccc(Cl)cc2C(=O)c2cc[n+]([O-])cc2)cc1` was tested, and the result_ITMP was -0.49%. In the case of `CCCCCCNC(=O)n1cc(F)c(=O)[nH]c1=O`, the result_ITMP is reported as 16.1%. In the case of `COc1ccc2cc(-c3[nH]c(-c4ccc(S(C)=O)cc4)nc3-c3ccncc3)ccc2c1` (stereo not drawn), the result_ITMP is reported as -3.68%. `CC(O)c1cc(C(=O)N[C@@H](C)Cn2ccc(-c3ccc(C#N)c(Cl)c3)n2)n[nH]1` (stereo partly drawn) gave a result_ITMP of -6.56%. For `Cc1cc(NC(=O)NCCN2CCC(O)(Cc3ccccc3)CC2)c2ccccc2n1`, the result_ITMP was -2.11%. In the case of `CCN(CC)C(=O)Nc1ccc(OCC(O)CNC(C)(C)C)c(C(C)=O)c1` (stereo not drawn), the result_ITMP is reported as -0.86%. `COc1cc(OC)c(NC(=O)Nc2cc(C)on2)cc1Cl` showed a result_ITMP of -2.8%. `O=C(O)C1=CCCN(CCOC(c2ccc(C(F)(F)F)cc2)c2ccc(C(F)(F)F)cc2)C1` gave a result_ITMP of -1.72%. For `O=C(CCBr)N1CCN(C(=O)CCBr)CC1`, the result_ITMP was 4.8%. With `CCCCC1C(=O)N(c2ccccc2)N(c2ccc(O)cc2)C1=O` (stereo not drawn) the result_ITMP was -3.35%. With `CC1(C)Oc2ccc(C#N)cc2[C@H](N(Cc2ncc[nH]2)c2ccc(Cl)cc2)[C@H]1O` the result_ITMP was 0.47%. `NC[C@@](O)(c1ccc(Cl)cc1)c1ccc(-c2cn[nH]c2)cc1` was tested, and the result_ITMP was 63.1%. `O=c1c(O)c(-c2ccc(O)cc2)oc2cc(O)cc(O)c12` was tested, and the result_ITMP was -2.54%. `C#C[C@]1(O)CC[C@H]2[C@@H]3CCC4=CC(=O)CCC4=C3C=C[C@@]21CC` gave a result_ITMP of -5.99%. For `COc1cc2nc(N3CCN(C(=O)C4COc5ccccc5O4)CC3)nc(N)c2cc1OC` (stereo not drawn), the result_ITMP was 21.3%. Work on `CN(C)CCCO[C@@H]1[C@H]2OC(C)(C)O[C@H]2O[C@@H]1[C@H](O)CO` yielded a result_ITMP of -8.5%. Work on `CC(C)(CCCCCCCCCCC(C)(C)CC(=O)O)CC(=O)O` yielded a result_ITMP of -8.61%. In the case of `Cc1nccc2[nH]c(=O)ccc12`, the result_ITMP is reported as -0.1%. With `O=C(Nc1cnc(Cl)nc1)c1ccc(F)c(F)c1` the result_ITMP was -0.35%. For `c1ccc(Cn2c(-c3ccc(OC[C@H](C4CCNCC4)n4c(-c5ccccc5)nc5ccccc54)cc3)nc3ccccc32)cc1`, the result_ITMP was 13.3%. `CCN(CC)C(=O)C1(c2ccccc2)CC1CN` (stereo not drawn) showed a result_ITMP of -0.03%. `Cc1cc(C(C)(C)C)cc(C)c1CC1=NCCN1` was tested, and the result_ITMP was 15%. With `CCN(CCCCOC(=O)c1ccc(OC)c(OC)c1)C(C)Cc1ccc(OC)cc1` (stereo not drawn) the result_ITMP was 10.5%. `COc1cc(NC(=O)c2ccccn2)ccc1Cl` showed a result_ITMP of 0.69%. `O=P(O)(O)C(O)(Cn1ccnc1)P(=O)(O)O` showed a result_ITMP of -1.98%. In the case of `CCC(C)[C@H]1O[C@]2(C=C[C@@H]1C)C[C@@H]1C[C@@H](C/C=C(\C)[C@@H](OC3C[C@H](OC)C(O[C@H]4C[C@H](OC)[C@@H](O)[C@H](C)O4)[C@H](C)O3)[C@@H](C)/C=C/C=C3\CO[C@@H]4[C@H](O)C(C)=C[C@@H](C(=O)O1)[C@]34O)O2` (stereo partly drawn), the result_ITMP is reported as -3.77%. In the case of `CCOC(=O)c1ccc(N(C)c2csc(-c3ccccc3)n2)cc1`, the result_ITMP is reported as -1.56%. `COC(=O)[C@H](CC(C)C)NC(=O)c1ccc(NC[C@@H](N)CS)cc1-c1cccc2ccccc12` was tested, and the result_ITMP was 2.98%. Molecule `C=C1/C(=C\C=C2/CCC[C@]3(C)[C@@H]([C@H](C)CCCC(O)(C(F)(F)F)C(F)(F)F)CC[C@@H]23)C[C@@H](O)C[C@@H]1O` has a result_ITMP of 0.82%. `C=C[C@@H]1C2=CCOC(=O)C2=CO[C@H]1O[C@@H]1O[C@H](CO)[C@@H](O)[C@H](O)[C@H]1O` showed a result_ITMP of -5.79%. `CCN(CC)CCOCCOC(=O)C1(c2ccccc2)CCCC1` was tested, and the result_ITMP was 6.63%. With `COc1ccc(Oc2c(Cl)cnn(C3c4ccccc4-c4ccccc43)c2=O)cc1` the result_ITMP was 8.58%. `CC(C)C[C@@H](NC(=O)OCC1c2ccccc2-c2ccccc21)C(=O)O` was tested, and the result_ITMP was -9.45%. Molecule `C=CCOc1ccccc1OCC(O)CNC(C)C` (stereo not drawn) has a result_ITMP of 7.84%. Work on `O=C(/C=C/c1cccc(S(=O)(=O)Nc2ccccc2)c1)NO` yielded a result_ITMP of -7.37%.
